Some of the results follow.
The molecules below were run on HepG2 (assay: cytotoxicity call (relative viability < 0.9)). Conditions: 10 µM.

Structure (SMILES) | cytotoxicity call
COCC(=O)N1[C@@H]2c3ccc(C4=CCCCC4)c(=O)n3C[C@@H]2[C@@H](CO)[C@@H]1C(=O)N1CCN(C)CC1 | inactive
C[C@H]1CN([C@@H](C)CO)C(=O)c2cc(NC(=O)Nc3cccc4ccccc34)ccc2O[C@H]1CN(C)C(=O)Nc1ccc(F)cc1 | inactive
CC(C)CC#Cc1cnc2c(c1)C(=O)N([C@@H](C)CO)C[C@@H](C)[C@@H](CN(C)C(=O)CCN1CCCCC1)O2 | inactive
C[C@@H]1CN([C@H](C)CO)C(=O)c2cc(NC(=O)c3ccccc3)ccc2O[C@@H](C)CCCCO[C@H]1CN(C)C(=O)Nc1ccc2c(c1)OCO2 | inactive
COc1ccc(NC(=O)N(C)C[C@@H]2Oc3ccc(NC(=O)CCCCCC(=O)Nc4ccccc4N)cc3C(=O)N([C@@H](C)CO)C[C@@H]2C)cc1 | inactive
C[C@H]1CN([C@@H](C)CO)C(=O)Cc2cc(NC(=O)C3CC3)ccc2O[C@H]1CN(C)C(=O)Nc1ccc(F)cc1 | inactive
COCCc1nnc(CCOC)n1N | inactive
Cc1cccc(/C=C2\CS/C(=C\c3cccc(C)c3)C2=O)c1 | inactive
COc1ccccc1-c1cnc2c(c1)C(=O)N([C@@H](C)CO)C[C@@H](C)[C@H](CN(C)C(=O)c1cccnc1)O2 | inactive
O=C(N/N=C/[C@@H](O)[C@H](O)[C@H](O)CO)c1ccccc1O | inactive

What follows are molecules tested on S. aureus RN4220 (assay: growth inhibition call (relative growth <= 0.2)). Conditions: 50 µM.

Structure (SMILES) | growth inhibition call
C[C@H](CO)N1C[C@H](C)[C@@H](CN(C)C(=O)Nc2ccc3c(c2)OCO3)Oc2c(NC(=O)Nc3ccc(C(F)(F)F)cc3)cccc2C1=O | inactive
O=C(C[C@@H]1C=C[C@@H](NC(=O)CN2CCOCC2)[C@H](CO)O1)NC1CCC1 | inactive
C#CCN1[C@H](/C=C/C2CC2)[C@H](Cc2ccccc2)OC(=O)[C@@H]1Cc1ccc(-n2cc(COc3ccccc3/C=C(C)/C=C/C(=O)NO)nn2)cc1 | inactive
C[C@@H]1CN([C@H](C)CO)C(=O)c2cccc(NS(C)(=O)=O)c2O[C@H]1CN(C)S(=O)(=O)c1ccc(Cl)cc1 | inactive
C=CC(=O)N[C@@H]1CN(c2nc(Nc3cn(C)nc3OC)c3ncn(C)c3n2)C[C@H]1F | inactive
Cc1ccc(S(=O)(=O)Nc2ccc3c(c2)C(=O)N([C@@H](C)CO)C[C@H](C)[C@@H](CN(C)C(=O)Nc2ccc(C(F)(F)F)cc2)O3)cc1 | inactive
Cc1noc(C)c1S(=O)(=O)Nc1ccc2c(c1)C(=O)N([C@@H](C)CO)C[C@@H](C)[C@H](CN(C)C)OCCCC[C@@H](C)O2 | inactive
CC(C)NC(=O)Nc1ccc2c(c1)CC(=O)N([C@H](C)CO)C[C@H](C)[C@@H](CN(C)C(=O)Nc1ccc3c(c1)OCO3)O2 | inactive
COc1ccc(NC(=O)Nc2ccc3c(c2)C(=O)N([C@@H](C)CO)C[C@@H](C)[C@H](CN(C)Cc2ccc4c(c2)OCO4)OCCCC[C@H](C)O3)cc1 | inactive
CCOC(=O)N(C)C[C@@H]1OCc2cn(nn2)CCCC(=O)N([C@@H](C)CO)C[C@H]1C | inactive
C[C@@H]1CN([C@H](C)CO)C(=O)c2cc(NC(=O)c3ccncc3)ccc2O[C@@H](C)CCCCO[C@H]1CN(C)S(=O)(=O)c1cn(C)cn1 | inactive
COc1ccc(/C=C/CN2CCC(C(=O)N[C@@H](c3ccc(F)cc3)c3ccc4ccccc4n3)CC2)cc1 | inactive
C[C@@H]1CCCCO[C@H](CN(C)Cc2ccc(Cl)c(Cl)c2)[C@@H](C)CN([C@H](C)CO)C(=O)c2cc(NC(=O)CCC(F)(F)F)ccc2O1 | inactive
CO[C@H](CCO)[C@H](O)c1ccc(O)c(F)c1 | inactive
COc1ccc2c3c(n(c2c1)C)[C@@H](CO)N(C[C@]13CCN(CC1)Cc1ccncc1)C(=O)CN1CCOCC1 | inactive
CSc1nc2nc(N)nc(N)c2s1 | inactive
COc1ccc2c3c(n(c2c1)C)[C@H](CO)N(C[C@]13CN(Cc2ccncc2)C1)C(=O)CN1CCOCC1 | inactive
COc1ccc(NC(=O)Nc2ccc3c(c2)CC(=O)N([C@H](C)CO)C[C@@H](C)[C@@H](CN(C)Cc2ccc(-c4ccccc4)cc2)O3)cc1 | inactive
CN([NH2+][O-])C(=O)N[C@@H]1[C@@H](O)[C@H](O)[C@@H](CO)O[C@@H]1O | inactive
C[C@H]1CCCCO[C@@H](CN(C)CC2CCCCC2)[C@@H](C)CN([C@@H](C)CO)C(=O)c2cc(NS(=O)(=O)c3ccc(Cl)cc3)ccc2O1 | inactive

Structure (SMILES) | growth inhibition call
C[C@@H]1CN([C@H](C)CO)C(=O)c2cccc(NS(=O)(=O)c3ccc(Cl)cc3)c2O[C@H]1CN(C)Cc1ccc(Oc2ccccc2)cc1 | inactive
C[C@@H]1CCCCO[C@H](CN(C)S(=O)(=O)c2cn(C)cn2)[C@@H](C)CN([C@@H](C)CO)C(=O)c2cc(NC(=O)CCCN(C)C)ccc2O1 | inactive
CC(=O)Nc1ccc(S(=O)(=O)c2ccc(NC(C)=O)cc2)cc1 | inactive
Cc1noc(C)c1NC(=O)N(C)C[C@@H]1Oc2ccc(NC(=O)CCN3CCOCC3)cc2CC(=O)N([C@H](C)CO)C[C@H]1C | inactive
Cc1noc(C)c1S(=O)(=O)Nc1ccc2c(c1)CC(=O)N([C@H](C)CO)C[C@H](C)[C@@H](CN(C)S(=O)(=O)c1ccc(F)cc1)O2 | inactive
CC(=O)N1CCc2nc(N)sc2C1 | inactive
Cc1ccc(S(=O)(=O)N(C)C[C@@H]2OCCCC[C@@H](C)Oc3ccc(NC(=O)Nc4c(C)noc4C)cc3C(=O)N([C@H](C)CO)C[C@@H]2C)cc1 | inactive
COc1ccccc1NC(=O)N(C)C[C@@H]1OCc2ccccc2-c2c(n(C)c3ccccc23)C(=O)N([C@H](C)CO)C[C@H]1C | inactive
COc1ccc([C@@H]2CC=CC[C@H](C)Oc3ccccc3C(=O)N(C)[C@H](Cc3ccccc3)C(=O)N2)c(OC)c1 | inactive
Cc1noc(C)c1NC(=O)Nc1cccc2c1O[C@@H](CN(C)S(C)(=O)=O)[C@H](C)CN([C@H](C)CO)C2=O | inactive
COCC(=O)N1[C@@H]2c3ccc(C4=CCCCC4)c(=O)n3C[C@@H]2[C@@H](CO)[C@@H]1C(=O)N1CCN(C)CC1 | inactive
C[C@H]1CN([C@@H](C)CO)C(=O)c2cc(NC(=O)Nc3cccc4ccccc34)ccc2O[C@H]1CN(C)C(=O)Nc1ccc(F)cc1 | inactive
CC(C)CC#Cc1cnc2c(c1)C(=O)N([C@@H](C)CO)C[C@@H](C)[C@@H](CN(C)C(=O)CCN1CCCCC1)O2 | inactive
C[C@@H]1CN([C@H](C)CO)C(=O)c2cc(NC(=O)c3ccccc3)ccc2O[C@@H](C)CCCCO[C@H]1CN(C)C(=O)Nc1ccc2c(c1)OCO2 | inactive
COc1ccc(NC(=O)N(C)C[C@@H]2Oc3ccc(NC(=O)CCCCCC(=O)Nc4ccccc4N)cc3C(=O)N([C@@H](C)CO)C[C@@H]2C)cc1 | inactive
C[C@H]1CN([C@@H](C)CO)C(=O)Cc2cc(NC(=O)C3CC3)ccc2O[C@H]1CN(C)C(=O)Nc1ccc(F)cc1 | inactive
COCCc1nnc(CCOC)n1N | inactive
Cc1cccc(/C=C2\CS/C(=C\c3cccc(C)c3)C2=O)c1 | inactive
COc1ccccc1-c1cnc2c(c1)C(=O)N([C@@H](C)CO)C[C@@H](C)[C@H](CN(C)C(=O)c1cccnc1)O2 | inactive
O=C(N/N=C/[C@@H](O)[C@H](O)[C@H](O)CO)c1ccccc1O | inactive
